Whole data set: some 81,000 sequences, median “one-hybrid fitness for binding parS DNA” near -0.17, cut for the highest 2% near 0.51. The list shows a part of the results.
B1: Caulobacter ParB omega fusion; a variant is named by its letters at X, in order, B8GW30 (parent)
chain: MESVVVGEPGMSEGRRGLGRGLSALLGEVDAAPAQAPGEQLGGSREAPIEILQRNPDQPRRTFREEDLEDLSNSIREKGVLQPILVRPSPDTAGEYQIVAGERAWRAAQRAGLKTVPIMVRELDDLAVLEIGIIENVQRADLNVLEEALSYKVLMEKFERTQENIAQTIGKSXSHVANXMRLLXLPDEVQSYLVSGELTAXHARAIAAAADPVALAKQIIEGGLSVRETEALARKAPNLSAGKSKGGRPPRVKDTDTQALESDLSSVLGLDVSIDHRGSTGTLTITYATLEQLDDLCNRLTRGI

Variants of: B1
Assay: one-hybrid fitness for binding parS DNA (scaled: cognate 1, non-cognate 0); higher = stronger binding
Conditions: with parS DNA site
How it was run: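 Fitness here means the log change in variant-to-wild-type read ratio between plasmids sequenced before and after selection. That scale was set so cognate equals 1 and non-cognate equals 0. The selection was a bacterial one-hybrid screen of Caulobacter ParB libraries, four specificity codons randomised, in E. coli USO carrying a HIS3 reporter with the site 19 bp from the promoter, grown 48 hours at 37°C on M9-minus-histidine with 0.1 mM IPTG and 5 mM 3-AT.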

Variant | one-hybrid fitness for binding parS DNA
SHLA | ≤ 0.2
SSSS | ≤ 0.2
LCIG | ≤ 0.2
LSLE | ≤ 0.2
WLHP | ≤ 0.2
HSRR | ≤ 0.2
WFAK | ≤ 0.2
QQCK | ≤ 0.2
QMHC | ≤ 0.2
PVPL | ≤ 0.2
RTQG | 1
GERV | ≤ 0.2
PTLC | ≤ 0.2
NAAT | ≤ 0.2
ISDR | ≤ 0.2
ADTC | ≤ 0.2
RAVV | ≤ 0.2
MNTR | ≤ 0.2
TPAK | ≤ 0.2
NKHW | ≤ 0.2
PKTP | ≤ 0.2
RGAP | ≤ 0.2
SSKD | ≤ 0.2
RAVQ | 0.23

Variant | one-hybrid fitness for binding parS DNA
RRAP | ≤ 0.2
TRDH | ≤ 0.2
TIKY | ≤ 0.2
QELR | ≤ 0.2
QVVL | ≤ 0.2
ICPF | ≤ 0.2
QLFC | ≤ 0.2
TVHW | ≤ 0.2
PRPA | ≤ 0.2
DLAK | ≤ 0.2
EECS | ≤ 0.2
MHLS | ≤ 0.2
QISR | ≤ 0.2
MLLE | ≤ 0.2
FRKS | ≤ 0.2
VYAA | ≤ 0.2
PHFT | ≤ 0.2
KTFY | ≤ 0.2
HATT | ≤ 0.2
YWPT | ≤ 0.2
RPWV | ≤ 0.2
DYAR | ≤ 0.2
CSNE | ≤ 0.2
SAAH | ≤ 0.2

Variant | one-hybrid fitness for binding parS DNA
SYKM | ≤ 0.2
TYRV | ≤ 0.2
YGAR | ≤ 0.2
VCVM | ≤ 0.2
RGTC | 0.695
AVVV | ≤ 0.2
YPQS | ≤ 0.2
HVPF | ≤ 0.2
ASGI | ≤ 0.2
MAHC | ≤ 0.2
IKLT | ≤ 0.2
LSWD | ≤ 0.2
RWHE | ≤ 0.2
TTPR | ≤ 0.2
RAPA | 0.231
GPAG | ≤ 0.2
ELMV | ≤ 0.2
YWSS | ≤ 0.2
MSRR | ≤ 0.2
FGVT | ≤ 0.2
ATYS | ≤ 0.2
WARV | ≤ 0.2
RYHV | ≤ 0.2
SHCH | ≤ 0.2

Variant | one-hybrid fitness for binding parS DNA
PTSK | ≤ 0.2
SNKG | ≤ 0.2
NVAL | ≤ 0.2
ATLH | ≤ 0.2
NQVL | ≤ 0.2
RHTQ | ≤ 0.2
QMSP | ≤ 0.2
YTAP | ≤ 0.2
SRNL | ≤ 0.2
PKET | ≤ 0.2
LHRT | ≤ 0.2
DPRG | ≤ 0.2
ERNT | ≤ 0.2
HQPR | ≤ 0.2
MRMR | ≤ 0.2
VHRC | ≤ 0.2
ATTH | ≤ 0.2
KMQT | ≤ 0.2
PRSD | ≤ 0.2
VVDT | ≤ 0.2
VRIR | ≤ 0.2
NRRL | ≤ 0.2
TLTG | ≤ 0.2
VANE | ≤ 0.2

Variant | one-hybrid fitness for binding parS DNA
KWPS | ≤ 0.2
DRGL | ≤ 0.2
AHNR | ≤ 0.2
TYRM | ≤ 0.2
PPCG | ≤ 0.2
VQYR | ≤ 0.2
LDHR | ≤ 0.2
HPGV | ≤ 0.2
VWMW | ≤ 0.2
ARPV | ≤ 0.2
PTIC | ≤ 0.2
FYRS | ≤ 0.2
RAPS | 0.673
PHRP | ≤ 0.2
WIQR | ≤ 0.2
ALYY | ≤ 0.2
QSFT | ≤ 0.2
RQNL | ≤ 0.2
PYYW | ≤ 0.2
HPNG | ≤ 0.2
MHQW | ≤ 0.2
RPIS | ≤ 0.2
YCPS | ≤ 0.2
KFNE | ≤ 0.2

Variant | one-hybrid fitness for binding parS DNA
KLIS | ≤ 0.2
GGTC | ≤ 0.2
RIYQ | ≤ 0.2
PPFT | ≤ 0.2
TMRV | ≤ 0.2
GMRQ | ≤ 0.2
AMFR | ≤ 0.2
DKSG | ≤ 0.2
LIKA | ≤ 0.2
STWY | ≤ 0.2
YLNM | ≤ 0.2
THRR | ≤ 0.2
LERN | ≤ 0.2
YVSP | ≤ 0.2
MMTC | ≤ 0.2
PTKI | ≤ 0.2
WSCS | ≤ 0.2
CKCS | ≤ 0.2
RKKL | ≤ 0.2
TWNT | ≤ 0.2
STVA | ≤ 0.2
EMHC | ≤ 0.2
TWCD | ≤ 0.2
MLKR | ≤ 0.2

Variant | one-hybrid fitness for binding parS DNA
KVGN | ≤ 0.2
KYPT | ≤ 0.2
SNYE | ≤ 0.2
FLQL | ≤ 0.2
QLDA | ≤ 0.2
TNVT | ≤ 0.2
HTTI | ≤ 0.2
MAHR | ≤ 0.2
KESG | ≤ 0.2
PRRF | ≤ 0.2
VSYV | ≤ 0.2
SISH | ≤ 0.2
YRSG | ≤ 0.2
VTLV | ≤ 0.2
ARSG | ≤ 0.2
RMKD | ≤ 0.2
LDSY | ≤ 0.2
YGPG | ≤ 0.2
RCAT | 0.921
VDPS | ≤ 0.2
NNAD | ≤ 0.2
RPTF | ≤ 0.2
WRTG | ≤ 0.2
PPWC | ≤ 0.2

Variant | one-hybrid fitness for binding parS DNA
ALPQ | ≤ 0.2
EISG | ≤ 0.2
PCVG | ≤ 0.2
CQFS | 0.281
SHGD | ≤ 0.2
FAVG | ≤ 0.2
PHTD | ≤ 0.2
SAPL | ≤ 0.2
RVSY | 0.479
NCIR | ≤ 0.2
DRQA | ≤ 0.2
SNQG | ≤ 0.2
RAGS | 0.989
QATD | ≤ 0.2
GAEL | ≤ 0.2
DAFG | ≤ 0.2
TTKH | ≤ 0.2
PYPC | ≤ 0.2
PCEG | ≤ 0.2
KTTG | ≤ 0.2
APFL | ≤ 0.2
MRSE | ≤ 0.2
KGED | ≤ 0.2
SHGF | ≤ 0.2

Variant | one-hybrid fitness for binding parS DNA
RAAM | 0.345
SSAP | ≤ 0.2
LTRR | ≤ 0.2
QKLN | ≤ 0.2
TREN | ≤ 0.2
VTCR | ≤ 0.2
SALN | ≤ 0.2
RLIN | 0.38
QFGM | ≤ 0.2
PRIN | ≤ 0.2
YSGW | ≤ 0.2
FRES | ≤ 0.2
WLIS | ≤ 0.2
EVHG | ≤ 0.2
CYPV | ≤ 0.2
ESQN | ≤ 0.2
ANKE | ≤ 0.2
DMEF | ≤ 0.2
WDRY | ≤ 0.2
MSWG | ≤ 0.2
YAIG | ≤ 0.2
WREF | ≤ 0.2
RFPE | ≤ 0.2
CIWV | ≤ 0.2

Variant | one-hybrid fitness for binding parS DNA
MRIG | ≤ 0.2
MAPD | ≤ 0.2
DEES | ≤ 0.2
VTLW | ≤ 0.2
MSHC | ≤ 0.2
LGST | ≤ 0.2
WCWS | ≤ 0.2
SQTI | ≤ 0.2
QKIL | ≤ 0.2
RRGQ | ≤ 0.2
FKLA | ≤ 0.2
QSAY | ≤ 0.2
ACDG | ≤ 0.2
VNQA | ≤ 0.2
VYGT | ≤ 0.2
QSCT | ≤ 0.2
ITNG | ≤ 0.2
WLPE | ≤ 0.2
GCMV | ≤ 0.2
ICSE | ≤ 0.2
GHFS | ≤ 0.2
THGG | ≤ 0.2
VHAY | ≤ 0.2
SDRG | ≤ 0.2

Variant | one-hybrid fitness for binding parS DNA
GLDG | ≤ 0.2
QATF | ≤ 0.2
PGQS | ≤ 0.2
GMHE | ≤ 0.2
KTNM | ≤ 0.2
CRSR | ≤ 0.2
KYYR | ≤ 0.2
RIHT | 0.936
NRHK | ≤ 0.2
GLVM | ≤ 0.2
RDNH | ≤ 0.2
APNE | ≤ 0.2
TATW | ≤ 0.2
YFMC | ≤ 0.2
HWQL | ≤ 0.2
EFEL | ≤ 0.2
SVSW | ≤ 0.2
SGCF | ≤ 0.2
RDDN | ≤ 0.2
WQDS | ≤ 0.2
AQNS | ≤ 0.2
ECAF | ≤ 0.2
AGQC | ≤ 0.2
NLTW | ≤ 0.2

Variant | one-hybrid fitness for binding parS DNA
WYSD | ≤ 0.2
NSEG | ≤ 0.2
TRKK | ≤ 0.2
HVSL | ≤ 0.2
VGNN | ≤ 0.2
RNWS | 0.705
NIDS | ≤ 0.2
IFQM | ≤ 0.2
PTQY | ≤ 0.2
TCQV | ≤ 0.2
RFPK | ≤ 0.2
SKRD | ≤ 0.2
VHSP | ≤ 0.2
GQAM | ≤ 0.2
WHFV | ≤ 0.2
SPRE | ≤ 0.2
ENPV | ≤ 0.2
VYCG | ≤ 0.2
RVVH | ≤ 0.2
RRQC | 0.63
PTNE | ≤ 0.2
TWRL | ≤ 0.2
AVGG | ≤ 0.2
VCIR | ≤ 0.2

Variant | one-hybrid fitness for binding parS DNA
QGGM | ≤ 0.2
MIMW | ≤ 0.2
DVII | ≤ 0.2
CDGR | ≤ 0.2
QPQC | ≤ 0.2
TRFT | ≤ 0.2
LASM | ≤ 0.2
RSCE | ≤ 0.2
ITQR | ≤ 0.2
PHRA | ≤ 0.2
CSYR | ≤ 0.2
RPRM | ≤ 0.2
LTAC | ≤ 0.2
GYSL | ≤ 0.2
SAKG | ≤ 0.2
NPNW | ≤ 0.2
LHDS | ≤ 0.2
VSRS | ≤ 0.2
